Where two headings read alike, the source gives them in different places.
B1: ShAb01H02K (ShAb01Hole-02Knob) (bispecific antibody)
chain 1: ARVDQTPRSVTKETGESLTINCVLRDSNCALSSTHWYRKKSGSTNEERILQGRRYVETVNSGSKSFSLRINDLRVEDSGTYRCKVYWGNSWQDKFCPGLGSYEYGDGTAVTVNSREPKSCDKGLEVLFQGP[no letters for human IgG1 Fc with Y407T (EU numbers)]
chain 2: ARVDQTPQTITKETGESLTINCVLRDSNCALASTDWYRKKSGSTNEESISKGGRYVETVNSGSKSFSLRINDLTVEDSGTYRCNAWDSWETRQLKCDYDVYGGGTVVTVNSREPKSCDKGLEVLFQGP[no letters for human IgG1 Fc with T366Y (EU numbers)]
B2: BiShAb21a (ShAb02 VNAR-25aa-ShAb01 VNAR-3c-Fc) (bispecific antibody)
chain: ARVDQTPQTITKETGESLTINCVLRDSNCALASTDWYRKKSGSTNEESISKGGRYVETVNSGSKSFSLRINDLTVEDSGTYRCNAWDSWETRQLKCDYDVYGGGTVVTVNGGGGSGGGGSGGGGSGGGGSGGGGSARVDQTPRSVTKETGESLTINCVLRDSNCALSSTHWYRKKSGSTNEERILQGRRYVETVNSGSKSFSLRINDLRVEDSGTYRCKVYWGNSWQDKFCPGLGSYEYGDGTAVTVNSREPKSCDKGLEVLFQ[no letters for human IgG1 Fc and a few adjoining residues]

Experiments:
Test in all cases: cell-based or functional assay
[1] = target: T1, SARS-CoV-2 Alpha (B.1.1.7) Spike on pseudovirions (SARS-CoV-2)
[2] = target: T2, SARS-CoV-2 Beta (B.1.351) Spike on pseudovirions (SARS-CoV-2)
[3] = target: T1, SARS-CoV-2 Alpha (B.1.1.7) Spike on …; remark: listed apart in the source
[4] = target: T2, SARS-CoV-2 Beta (B.1.351) Spike on …; remark: listed apart in the source

Binder	pseudovirus neutralization IC50 [1] [µg/mL]	pseudovirus neutralization IC80 [1] [µg/mL]	pseudovirus neutralization IC50 [2] [µg/mL]	pseudovirus neutralization IC80 [2] [µg/mL]	pseudovirus neutralization IC50 [3] [µg/mL]	pseudovirus neutralization IC50 [4] [µg/mL]
B1	< 0.023	0.046	0.011	0.021	< 0.02	< 0.02
B2	0.022	0.041	0.026	0.045	0.02	0.03
